Source: PubChem BioAssay AID488969 (Vanderbilt High Throughput Screening Facility, 2010)
Whole data set: some 110,000 compounds, median “z-score” near -0.1, cut for the highest 2% near 2. This is one part of the list.

These compounds were tested against Metabotropic glutamate receptor 8 (Rattus norvegicus) (UniProt P70579) (assay: rat mGluR8 modulators via GIRK flux, primary screen, cell-based, thallium flux, HTS (AID 488969)). Conditions: HEK293 rat mGluR8, GIRK (G protein-gated inwardly rectifying potassium channel) thallium flux, FluoZin2; at 10 µM; stronger effect = higher value; submaximal glutamate (EC20) added with thallium.
Sequence of UniProt P70579 (P70579 whole entry, looked up): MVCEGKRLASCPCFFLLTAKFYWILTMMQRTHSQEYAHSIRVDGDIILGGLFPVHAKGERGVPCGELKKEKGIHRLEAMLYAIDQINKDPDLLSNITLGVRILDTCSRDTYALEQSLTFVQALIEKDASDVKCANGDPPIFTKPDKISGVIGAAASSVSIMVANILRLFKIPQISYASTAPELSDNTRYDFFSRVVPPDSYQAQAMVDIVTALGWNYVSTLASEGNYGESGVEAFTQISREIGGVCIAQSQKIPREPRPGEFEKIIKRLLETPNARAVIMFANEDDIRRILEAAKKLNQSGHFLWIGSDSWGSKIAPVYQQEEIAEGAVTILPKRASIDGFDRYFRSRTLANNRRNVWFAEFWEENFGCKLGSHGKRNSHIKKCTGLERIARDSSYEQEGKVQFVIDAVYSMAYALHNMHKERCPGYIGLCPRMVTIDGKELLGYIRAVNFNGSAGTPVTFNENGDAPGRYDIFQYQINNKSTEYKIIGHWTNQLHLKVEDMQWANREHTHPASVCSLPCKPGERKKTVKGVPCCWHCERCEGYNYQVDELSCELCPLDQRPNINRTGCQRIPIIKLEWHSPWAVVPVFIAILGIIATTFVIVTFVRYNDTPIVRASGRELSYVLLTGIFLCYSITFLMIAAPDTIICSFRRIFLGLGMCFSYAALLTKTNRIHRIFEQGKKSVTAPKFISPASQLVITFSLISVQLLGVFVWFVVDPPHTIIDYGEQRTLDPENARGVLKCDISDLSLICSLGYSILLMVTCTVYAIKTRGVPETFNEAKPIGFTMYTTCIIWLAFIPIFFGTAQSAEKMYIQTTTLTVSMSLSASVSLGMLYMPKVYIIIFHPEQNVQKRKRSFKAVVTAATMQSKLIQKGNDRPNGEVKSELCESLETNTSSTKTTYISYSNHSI

| SMILES | z-score |
| --- | --- |
| CS(=O)(=O)N(CC(=O)Nc1ccccc1C(=O)NCCc1ccccc1)c1ccc2c(c1)OCCO2 | -0.493 |
| Cc1ccc2c(c1)-c1c(ssc1=S)C(C)(C)N2C(=O)CN1C(=O)c2ccccc2C1=O | -0.494 |
| COc1ccc(Cl)cc1NC(=O)Cc1c(F)cccc1Cl | -0.155 |
| Cc1ccc(C=Nc2ccccc2C(=O)Nc2ccccc2)cc1 | -0.556 |
| O=C1CNC(=O)N1CC(=O)N1CCCc2ccccc21 | 0.0719 |
| CCCCn1nc2cc(C(=O)N[C@H](C)C3CCCCC3)ccc2c1OCC | -0.455 |
| CCN(CC)CCNC(=O)C1CCC(=O)N(c2ccc(OC)cc2)C1c1ccc(F)cc1 (centres undefined) | 0.555 |
| CC(C)Oc1ccc(/C=C(\NC(=O)/C=C/c2ccco2)C(=O)NCCc2nc3ccccc3[nH]2)cc1 | -0.676 |
| O=c1ccc(/C=C/c2ccccc2)nn1Cc1ccc(Cl)cc1Cl | 0.353 |
| Cc1ccc(CC(=O)NCC(C)C)cc1 | -0.0604 |
| Cn1c(=O)c2c(ncn2CC(=O)Nc2ccccc2)n(C)c1=O | 0.318 |
| CCCc1cc(C(=O)OC)c(NC(=O)c2cc(C)on2)s1 | 0.519 |
| O=C(Nc1ccc(OC(=O)c2cccs2)cc1)c1ccco1 | 0.627 |
| CCn1cc(Cl)c(C(=O)NNC(=O)CCn2cc([N+](=O)[O-])cn2)n1 | -0.211 |
| Cc1cccc(C(=O)N[C@H](C(=O)Nc2nccs2)C(C)C)c1 | 0.39 |
| Cc1cc(C)c(C#N)c(SCCS(=O)(=O)c2ccc(C(C)(C)C)cc2)n1 | -0.387 |
| CC1(C)Cc2c(c(-c3ccco3)nc3sc4c(NCCN5CCOCC5)ncnc4c23)CO1 | 0.876 |
| N#CCCn1cnc2ccccc21 | -0.0199 |
| CC(Oc1ccc(Cl)cc1Cl)C(=O)/C=C/N(C)C (centres undefined) | 0.0197 |
| CC(C)C(NC(=O)c1ccccc1)C(=O)NCc1ccccn1 (centres undefined) | 0.386 |
| Cc1c(N2C(=O)C(=O)/C(=C(/O)c3ccc(Cl)cc3)C2c2ccccc2)c(=O)n(-c2ccccc2)n1C (centres undefined) | -0.314 |
| CCCCC(=O)Nc1ccc(NC(=O)c2ccc([N+](=O)[O-])cc2Cl)cc1OC | -0.34 |
| O=C(COC(=O)c1ccc(Cl)c(S(=O)(=O)N2CCCC2)c1)NC1CCCC1 | -2 |

| SMILES | z-score |
| --- | --- |
| CCC(=O)Nc1ccc(Cl)c(NC(=O)c2cccnc2)c1 | -0.146 |
| CC(C)(C)Cc1nnc(NS(=O)(=O)c2ccc(F)cc2)s1 | -0.206 |
| CCOc1ccc(S(=O)(=O)N(CC(=O)O)c2ccc(C)cc2)cc1 | 0.107 |
| O=C1NN=C(c2ccc(Cl)cc2)CC1c1cccc(Cl)c1 (centres undefined) | 0.0439 |
| CN=c1scc(-c2ccc(Br)cc2)n1C | 0.223 |
| CCn1c(Cc2ccccc2)nnc1SCC(=O)Nc1nnc(-c2ccccc2)s1 | -0.126 |
| CCN(CC)S(=O)(=O)c1ccc(C)c(NC(=O)Cn2c(=O)cnc3ccccc32)c1 | -0.0978 |
| COc1cccc(/C=N/Nc2cc(-n3nc(C)cc3-c3ccccc3)ncn2)c1O | -0.0565 |
| O=C(Nc1cccc(C(=O)N2CCOCC2)c1)c1cccnc1 | 0.2 |
| CCC(C)N(C(=O)COC(=O)CCc1c[nH]c2ccccc12)C1CCS(=O)(=O)C1 (centres undefined) | 0.158 |
| O=C(CN1C(=O)COc2ccccc21)NCc1ccc(C(=O)O)cc1 | -0.0237 |
| CCc1ccc2oc(-c3cc(N)cc(C)c3O)nc2c1 | 0.32 |
| Cc1nn(-c2ccccc2)c(N2CCCC2)c1/C=N/NC(=O)c1cc(-c2cccs2)nc2ccccc12 | -0.174 |
| c1ccc(-c2nc3cc4ccccc4cc3[nH]2)nc1 | -0.116 |
| Cc1c(NC(=O)OCCNC(=O)COc2c(Cl)cccc2Cl)sc(=S)n1C | -0.376 |
| Cc1cc(OCC(F)(F)C(F)(F)C(F)(F)C(F)F)nc(N)n1 | -1.04 |
| COc1ccc(-c2c/c(=N\c3nc(-c4ccccc4)c(C)s3)c3ccccc3o2)cc1O | -0.00329 |
| Cc1ccc(NC(=O)CCC(=O)OCC(=O)c2ccc(Oc3ccc([N+](=O)[O-])cc3)cc2)cc1 | -0.122 |
| O=C(NC(C(=O)c1ccccc1)n1cnccc1=O)c1ccccc1 (centres undefined) | -1.21 |
| CCC(C(=O)O/N=C(\N)c1ccc(Cl)cc1)c1ccccc1 (centres undefined) | -0.417 |
| O=C(N/N=C/c1ccc(OCc2ccccc2)cc1)c1cccs1 | 0.0314 |
| O=C(c1ccco1)N1CCN(CCOCCOc2cccc3ccccc23)CC1 | -0.304 |
| COc1cc(NC(=O)Cn2nnc(-c3ccncc3)n2)cc(OC)c1 | 0.284 |

| SMILES | z-score |
| --- | --- |
| N#CCC(CNc1ncc(C(F)(F)F)cc1Cl)OC(=O)c1ccc(Cl)cc1 (centres undefined) | -0.0887 |
| CC(=O)/C(N)=N/Nc1cccc(Cl)c1 | -0.157 |
| CCN(CC)CCCN1C(=O)C(=O)/C(=C(/O)c2ccc(C)cc2)C1c1ccccn1 (centres undefined) | -0.236 |
| COc1ccc(S(=O)(=O)NCCSCc2cccs2)cc1 | 1.32 |
| CN1CCN(S(=O)(=O)c2ccc(Br)c3nsnc23)CC1 | 0.0275 |
| Cc1ccccc1C(NC(N)=O)c1ccccc1 (centres undefined) | 0.158 |
| CCOC(=O)c1c(NC(=O)CC2Nc3cc(C)c(C)cc3NC2=O)sc(C)c1C (centres undefined) | 0.0319 |
| CCCCSc1nnc2c(n1)[nH]c1ccccc12 | 1.14 |
| O=C(CCC1CCCCC1)Nc1cccnc1 | 0.982 |
| CCOC(=O)C1CCN(C(=O)Cn2cc(C#N)c3ccccc32)CC1 | 0.0716 |
| O=C(CSCc1ccc(Cl)cc1)N1CCN(Cc2ccc3c(c2)OCO3)CC1 | 0.167 |
| COc1ccc(-c2cc(C3CCN(c4ncccc4[N+](=O)[O-])CC3)[nH]n2)cc1 | 0.0275 |
| O=C(O)c1ccc(NS(=O)(=O)c2ccc(Cl)c(Cl)c2)cc1O | -0.145 |
| CC(C)(C)C1CCc2c(sc(NC(=O)CSc3ncn[nH]3)c2C#N)C1 (centres undefined) | -0.123 |
| CCCOc1cccc(C(=O)NC(=S)Nc2ccccc2)c1 | 0.0309 |
| O=C(Cc1cn2ccsc2n1)OCc1ccccc1 | -0.286 |
| Cc1ccc(-c2[nH]nc(N)c2N=Nc2cccc(Cl)c2C)cc1 | 0.00456 |
| Cc1nn(Cc2c(F)c(F)c(F)c(F)c2F)c(C)c1NC(=O)c1cccc(COc2ccc(Cl)cc2)c1 | 0.217 |
| Cc1ccc(S(=O)(=O)c2nnn3c2nc(N2CCCCC2)c2ccccc23)cc1 | -0.414 |
| CC(c1ccco1)N(C(=O)C12CC3(C)CC(C)(CC(C)(C3)C1)C2)c1ccccn1 (centres undefined) | -0.0164 |
| O=C(Cn1c(C(F)(F)F)nc2ccccc21)c1ccccc1 | -0.175 |
| C/C(=N\OCC(=O)N/N=C/c1ccccc1)c1cccs1 | 0.716 |
| CCCNC(=O)COC(=O)/C=C/c1ccc2c(c1)OCO2 | -0.3 |
